Test results taken from publication PMC10726135.
The list shows a part of the results. At the low end of the ranking, values are background and their order means little. The protein was read in a cell extract, so binding may be indirect.

target: T1, HNF4alpha8 (COS-7 nuclear extract) (UniProt P41235-5); assay: protein-binding microarray; details: COS-7 nuclear extract on double-stranded Agilent 4x180k PBM; binding buffer, salt, pH and temperature not given; high values mean tight binding; double strand, one strand shown; sequences stand for … in …GCCTAGGGAGATTAGAGTATCGGTCGA
T1 sequence: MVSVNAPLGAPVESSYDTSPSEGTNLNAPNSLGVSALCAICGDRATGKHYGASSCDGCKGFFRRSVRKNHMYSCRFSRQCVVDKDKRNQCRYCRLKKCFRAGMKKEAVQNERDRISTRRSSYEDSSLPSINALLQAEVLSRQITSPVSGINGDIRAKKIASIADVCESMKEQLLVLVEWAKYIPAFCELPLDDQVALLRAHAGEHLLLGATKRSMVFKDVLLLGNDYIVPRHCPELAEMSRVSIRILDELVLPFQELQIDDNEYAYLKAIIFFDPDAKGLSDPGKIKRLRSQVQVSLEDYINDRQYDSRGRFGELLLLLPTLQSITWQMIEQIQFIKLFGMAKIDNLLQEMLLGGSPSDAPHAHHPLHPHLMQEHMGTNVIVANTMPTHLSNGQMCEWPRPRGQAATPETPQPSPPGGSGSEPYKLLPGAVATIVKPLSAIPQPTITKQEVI

Sequence	binding signal (log2 normalized intensity)
TGAATTTGGTACCTCCCCCCACACCATTAG	4.99
TTCTGGAGGTGAGAAGCCTGAAATGAGTTT	-1.12
TAGAGGGTAAACAGCCTCTAAGCACGGCCA	-1.24
ATAAACAGAAGCAATCACAAGGAATGCCCT	1.32
CTTTGTTTACTTAACCTTTGATCATATGCA	5.75
AAGCATGTGATCTACTCCCTGTTCTTACAC	0.168
TTGGCAATTACCCAACAGACTTTCCCCCTA	4.13
TATCTCGTCACCTTTATCGAACCTATTGTT	1.16
TCACACACACACACACACACACCCCACACA	2.2
CTGTACCCTATGCACCCCACAGTGCTGTTT	1.71
CTTGGTGCCTCTGAGCTAAGATAACCATCA	-1.38
CTGTCTAATTTTGCACAGCCAGCCTGAGGC	-1.24
AAACAGGGACAGATGTTTGGTTGAGCAAGC	-1.35
TAGCTAAGCTTCACTGACATTCCAGCCACT	-1.46
TTATCTTGGAACCTCAAGAGGAGAAGAATT	-1.25
GCATTCCACCAAATCTTACCTAAGGAAGTT	-1.22
AGATTGCTCAGAGGCACAGTCTGCTTTCAG	-1.38
ACTGAACCCAGGCATACTCAGTTATCAACC	-1.2
ATGGCCGCTCCGCGAGGTGAGCCATTGGCT	-1.31
AACTGCAAGGAAATCTGGGAAATGTAGCTT	-1.16
CCCTATGTGTTTCTTCTGCTTCCCTAGGGA	0.254
GAGCAAAAAGGCCGTTCAAAGGCAGCCTTC	-1.42
GGCGACATCAAAGCATTTGGAGATTGCCAC	-1.27
AGAGCATCTGAGTGTCAAAAACAATACCAG	-1.34

Sequence	binding signal (log2 normalized intensity)
TCCGGAGAACACGGAGTCCTTCTGGGGCTA	-1.36
TAAACAACACAGAACTAGCCAGACCTGTTC	-1.41
GATCAAGCAGGTGACCTTCGATCACCTCAA	5.59
GAGCAGTGGGAGGTGAGGAAAACGGAGACA	-1.38
TGCCTCCTAAGGCCTCCAGAAGGAATGCAG	-1.29
CCCCCAGTGCACCTTAATAAGCACATTCCT	1.26
AAGTCCACGTGAGAGGGTCGTGATCGATTG	1.86
CAGGAGATGTGTGAAGGACACAGAATGACT	-1.37
CACACTGCAGCAAAACTTTAGGACTTTGAA	4.12
ACCCGTGCTTGGAATGCTATTTGCATTGAC	1.04
CCCCTGGCCTCACCCTTGTCCCTGAGGCTG	1.97
TCCCCATTCCTAAGTTCCAAAGGCCATCCA	3.93
TTATATCAGAGGAATGTCTGACCAACCTGT	0.807
TGTGACCTTTGGAAGGTGGGGGAGGAGACA	3.69
TGCTTGGCCTCTCCACTTGGGTATCAGATA	0.526
ACTACTGCTTTAGGCCTCAAGACAAACAAT	-1.28
GAATAATCCCCTCCTGGACTTTGGTCTCAT	8
TCTGACCAGGCTGATTTAGCTATTTGACCT	4.7
GAGAGAATGACCCTTGCTTGACCCATTATG	3.34
AAGGGTGAAAAGATAGCTTGAGGCCAGCTC	-1.3
AACCACCACTGGGCAATTGGTTTCCGCTAA	-1.39
GCCGGAGGGGAGGTTATCTCGGGGCTGGCA	-1.28
CCCTGCCCTCAGGGAATCCTGCATTATCAG	0.0972
GCTGTAGTGTGTAAGTATGCTCACTGACCT	3.61

Sequence	binding signal (log2 normalized intensity)
CTAAGAGATTTGAATATGTACATGGACTTT	6.92
CTATGTCCCTGACTGTGTGGCTTGCCTCTC	0.635
AGAAGGCAGCCGATTAACACAAAAAGGCAG	-1.35
CCACTTTGAATCAGGAGAGCATCTGAGTGT	0.742
GTGTGCTGAGAGTTGGAAAATGTCGTTTTC	0.865
CTTGGGTATCAGATAGTCCAATGTCCAGAA	4.27
AGGGTGTTGTGGAATGTGCTTGGACCTGCT	2.38
AGACAACCTTTGGTCACTTGTAAGATACTG	2.81
GAAAGAGCCCCTTTGTCCATTATCTCACTT	0.671
TCAGCTGGTCCTTCAAGTGTGACCCTGAAC	4.07
CTCCATTTCCTTCTAGCTCCCCAATAGACA	3.44
CAGACCAGTAACCTAAGTCAGGAAACTGAC	-1.29
GCCTTTTATCCCTTTTGAGGCTGGAGGATC	0.34
TCACAATAGGGTTCAAACTCCTATGTGAAT	2.02
AGAATGGAGAAAACAACATTCCTTGTGTTT	0.48
TACTTAGTGGCTCCTAGAATTATCCCACCC	2.57
ACAAACCTTATCTCTCAAGGTTCCCAGCTA	-1.28
TCCAAATCTAAGATATATCACCTGCCAGCT	-1.37
GTACCTTGACCTTCTCTGTTAACCCTTTGC	4.52
CCTTGTGAGCAGGATTATAGTTTATCTACC	0.51
ATGGATTTGATAGAGTGATAGCATGGTTTA	0.979
AAGGCAAAAGAGACAGGACTTTACAAAGTA	-0.988
AACCCTTGCACTGCTGGTTTTTGTCAAAGA	1.77
GCACCCCTGCCCCCATGTTGTTCAAGGGTC	4.83

Sequence	binding signal (log2 normalized intensity)
TGCATAAGGACCTCCTGAGATAGGTATGAT	-1.26
TACACTGCCTCCTTCAAGGATTAGCAGATA	-1.18
TCTGGAATGTGGAGAATGGCAAGAGATAAG	-1.28
TGATGCCCTTTGGCCTTTCTAATTATTTAC	4.4
CTTATCAGCAGATAAGGGCAGAGAGGCTGC	-1.31
AAAAGACCAAAAAGGCTAACTTACCCGCTT	-1.27
CAACTCCAAAGTCCAAAGTCCAGTCTTATC	8.47
GAGAAGGGTGGGAATTGGGATAGCAAAGGG	-1.27
TTCAAAGTTCAGTTTGATTACTTGGCACTT	1.51
AGTATGCCACTGGTTAGTTCCAAAGGACAA	2.14
TTCTCTAGATGTCCCAGTAGATAACTTCAA	-0.561
AGCTCTGCAATAGAGCCACATTCTGAGACT	-1.28
GGCTGATTGGCAGGCATTCCACACTGCAGG	-1.2
AGAGCAGTGGAAGACAAATGATAATACTTA	-1.28
CAAGGAGGCTGAAGAAGTTGCTCAGTGTTC	0.223
GCAGTTTTTGATCAAGGAGGACTTTGGAAT	7.54
AGGAGTACACACCATAAGAGGCTCTAGATC	-1.08
GTTACTGTGTTCCTTTTATCTTACATGCCT	0.776
ATGCATAGAAGTATGTCTGGGATTTGAAGG	-1.1
TGCAGAGCTTGCTCTCACCAGCTTCTTCTC	-1.29
GGGGGAGGGGACTTCGCTGGAGGTGTTAAA	-1.21
